Data reported in PubChem BioAssay AID504706 (National Center for Advancing Translational Sciences (NCATS), 2011).
Out of some 320,000 compounds screened, about 200 (0.062%) were called active. The inconclusive results got no clear call from the source; some entries with a clear call stand among them for comparison. Calls follow the shape of the dose curve; as a rule, active = well fitted activation curve with a large enough effect; inconclusive = small, poorly fitted or top-dose-only effect; inactive = no such curve, though single readings can be large or run the other way. No potency is given beside an inconclusive call; the fits are too rough.

Test: qHTS assay for re-activators of p53 using a Luc reporter; also: nearly all actives have a fitted effect of over 45% in size
Details: H1299 p53-A138V BP100-luciferase reporter, luminescence, 24 h; series mostly up to 92.2 µM
Procedure, shortened: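 H1299 (p53-null), stable ts p53-A138V + BP100-Luc; 1000 cells/well, Opti-MEM/10% FBS; cpd 4 pt, 1:5; 24 h, 37 deg C, 5% CO2; detection reagent 10 min RT; luminescence.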
Potency is read from the fitted curve at half-maximal effect; tags tell the direction and shape of the fitted curve.

| SMILES | Potency |
| --- | --- |
| COc1cc(/C=C/c2nc(-c3ccccc3O)n[nH]2)cc(OC)c1OC | inconclusive [activator, single point] |
| CN1CCN(/N=C/c2nc(-c3ccc(Cl)cc3)n3ccccc23)CC1 | inconclusive [activator, partial curve, poor fit] |
| O=C(/C=C/c1ccc(N2CCC(c3ccccc3)=N2)cc1)c1ccccc1 | inconclusive [activator, partial curve, poor fit] |
| COc1ccc(OCc2cc(C(=O)N[C@H]3CCCCNC3=O)no2)c(Cl)c1 | inactive |
| Cc1cc(C)c2nc(NNC(=O)c3ccc(S(=O)(=O)N4CCCCC4)cc3)sc2c1 | inconclusive [activator, partial curve, poor fit] |
| CC(=O)Nc1cccc(NC(=O)c2ccc3[nH]c(C)c(C)c3c2)c1 | inactive |
| CN(C)/C=N/c1sc2c(c1C#N)CCCCC2 | inconclusive [activator, partial curve, poor fit] |
| CCC(=O)NC1CC2CCCC(C1)N2Cc1ccc(C)cc1 (stereo not given) | inconclusive [activator, single point] |
| O=C(Cn1nnc2ccccc2c1=O)NCCc1ccccc1 | inconclusive [activator, partial curve, poor fit] |
| COc1ccc(C(=O)N(Cc2ccco2)C(C(=O)NC2CCCC2)c2ccc(O)cc2)cc1OC (stereo not given) | inconclusive [activator, single point] |
| O=C(O)CCC(=O)Nc1nc(-c2ccccc2)cs1 | inactive |
| Cc1nnc(NC(=O)c2ccc(-c3ccc(Cl)cc3)o2)s1 | inactive |
| Fc1ccc(-c2nn3c(C4COc5ccccc5O4)nnc3s2)cc1 (stereo not given) | inconclusive [activator, single point] |
| Cc1ccsc1C(=O)OCC(=O)NC1CCCC1 | inconclusive [activator, full curve, poor fit] |
| Cc1ccsc1/C=N/n1cnc2sc(C)c(C)c2c1=O | inconclusive [activator, full curve, poor fit] |
| O=C(O)c1cccc(-c2nnn(Cc3ccccc3)n2)c1 | inconclusive [activator, full curve, poor fit] |
| COc1ccc(-c2nnc(SCC(=O)Nc3cc(C)on3)o2)cc1 | inactive |
| Cc1cc2cc(CNC(=O)c3ccc(S(=O)(=O)N4CCOCC4)cc3)ccc2n1C | inactive |
| O=C(NCc1ccc(F)cc1)c1cccnc1C(=O)O | inactive |
| Cc1ccc2c(c1)N=C(c1ccc(F)cc1)CO2 | inconclusive [activator, partial curve, poor fit] |
| CCCCn1cc(SCC(=O)O)c2ccccc21 | inconclusive [activator, single point] |
| CCOC(=O)c1c(/N=C/c2cc([N+](=O)[O-])ccc2O)sc(C)c1C | inactive |
| O=C(c1ccco1)N1CCN=C1SCc1cccnc1 | inconclusive [activator, single point] |

| SMILES | Potency |
| --- | --- |
| CCN(CC)c1ccc(/C=N/NC(=O)c2c[nH]c3ccccc23)cc1 | inactive |
| COc1cccc(-c2cc3onc(-c4ccccc4)c3c(=O)n2C)c1 | inconclusive [activator, full curve, poor fit] |
| O=C(CN1CCCc2ccccc21)N/N=C/c1ccc(F)cc1F | inactive |
| COc1cccc(/C=N/NC(=O)C(C)n2nc(C)c([N+](=O)[O-])c2C)c1O (stereo not given) | inconclusive [activator, full curve, poor fit] |
| Cc1cc(C)c(C#N)c(N2CCSCC2)n1 | inactive |
| CCn1c(SCC(=O)N2CCN(c3ccccc3)CC2)nnc1-c1c[nH]c2ccccc12 | inactive |
| O=C(NCC1CCCO1)c1ccc(N2CCCCC2)nc1 (stereo not given) | inconclusive [activator, full curve, poor fit] |
| COc1ccc(O)c(/C=N/N=C/c2cccc([N+](=O)[O-])c2)c1 | inconclusive [activator, single point] |
| CCC(=O)Nc1ccc(S(=O)(=O)Nc2nccs2)cc1 | inconclusive [activator, partial curve, poor fit] |
| COc1ccc(-c2n[nH]c(=S)n2-c2cc(OC)ccc2OC)cc1 | inactive |
| COc1ccc(C(=O)/C=C/Nc2cccc(C)n2)cc1OC | inconclusive [activator, partial curve, poor fit] |
| CC1CN(C(=O)CNC(=O)Cc2cccc3ccccc23)CC(C)O1 (stereo not given) | inconclusive [activator, partial curve, poor fit] |
| C/C(=N\NC(=O)c1cccs1)c1ccc(C(=O)O)s1 | inconclusive [activator, partial curve, poor fit] |
| CCOc1ccc(C2C(C(=O)c3ccco3)=C(O)C(=O)N2CCCn2ccnc2)cc1 (stereo not given) | inconclusive [activator, full curve, poor fit] |
| CCOc1ncccc1C(=O)OCC(=O)c1cc(C)n(Cc2ccco2)c1C | inconclusive [activator, full curve, poor fit] |
| Clc1ccccc1N/N=C/c1ccc2c(c1)OCO2 | inconclusive [activator, partial curve, poor fit] |
| Cc1c(C(=O)N2c3ccccc3CC2C)oc2ccccc12 (stereo not given) | inconclusive [activator, full curve, poor fit] |
| COc1ccc2nc(Nc3nc4cc5c(cc4s3)OCCO5)sc2c1 | inconclusive [activator, partial curve, poor fit] |
| CC(C)C(C)NC(=O)COc1ccc(Sc2ccc(OCC(=O)NC(C)C(C)C)cc2)cc1 (stereo not given) | inactive |
| Oc1ccc(/C=N/NC2=NCCCCC2)c(O)c1 | inconclusive [activator, partial curve, poor fit] |
| O=C(NNC(=O)c1cc2cc(OC(F)(F)F)ccc2[nH]1)c1ccc(Cl)cc1 | inactive |
| CCOC(=O)N1CCN(C(=O)CCN2C(=O)COc3ccc(C)cc32)CC1 | inconclusive [activator, single point] |
